Results published in PubChem BioAssay AID2112 (National Center for Advancing Translational Sciences (NCATS), 2009).
The campaign covered roughly 240,000 compounds. About 15 (0.006%) were called active. Inconclusive means that the source gave no clear call. Such entries were picked first, then a sample of the others. Calls follow the shape of the dose curve; as a rule, active = well fitted inhibition curve with a large enough effect; inconclusive = small, poorly fitted or top-dose-only effect, or effect the other way, or another doubt; inactive = no such curve, though single readings can be large or run the other way. No potency is given beside an inconclusive call; the fits are too rough.
Potency is read from the fitted curve at half-maximal effect; tags tell the direction and shape of the fitted curve.

The compounds below were run against Lysosomal alpha-glucosidase (Homo sapiens) (UniProt P10253) (assay: qHTS Assay for Inhibitors and Activators of Human alpha-Glucosidase From Spleen Homogenate). Conditions: 4-MU-alpha-glucoside fluorescence; series mostly up to 79.9 µM.
How it was run: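 Compounds were titrated against alpha-glucosidase in spleen homogenate at pH 5.0, with 1 mM 4-methylumbelliferyl substrate for 40 min at 37 C. Reactions were quenched with pH 10 NaOH/glycine and fluorescence measured.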
In the case of `CCn1c(SCC(=O)c2ccc(O)c(O)c2)nnc1-c1ccccc1OC`, the Potency was “inactive”.
With `O=S(=O)(NC1=NCCCCC1)c1cccs1` the Potency was inconclusive [inhibitor, partial curve].
In the case of `Clc1cncc(Cl)c1NNc1c2ccccc2nc2ccccc12`, the Potency was inconclusive [activator, partial curve].
With `CCOC(=O)C1CCCN(C(=O)CCC(=O)Nc2ccc3nc(N4CCOCC4)cc(C)c3c2)C1` (stereo not given) the Potency was inconclusive [activator, partial curve].
For `CC1=C(C#N)C(c2cccnc2)C2=C(CC(C)(C)CC2=O)N1` (stereo not given), the Potency was inconclusive [activator, single point].
In the case of `COc1ccc(-c2cn3cccnc3n2)cc1Br`, the Potency was inconclusive [activator, single point].
For `O=c1ccc2ccc(O)cc2o1`, the Potency was inconclusive [activator, partial curve].
In the case of `CC(C)(C)C(=O)OCCNc1nc(-c2ccccc2)nc2ccccc12`, the Potency was “inactive”.
`Cc1cc(NCCCCO)n2c(nc3ccccc32)c1C#N` was tested, and the Potency was inconclusive [activator, partial curve].
`COc1ccc2c(c1)C(=O)[C@H](OC(=O)NCc1ccco1)[C@@H](c1ccc(OC)c(Br)c1)O2` was tested, and the Potency was “inactive”.
`O=C(/C=C/c1ccc(O)c(O)c1)O[C@@H](C(=O)O)[C@@H](OC(=O)/C=C/c1ccc(O)c(O)c1)C(=O)O` was tested, and the Potency was “inactive”.
`CCCn1c(-c2cccs2)nc2nc3ccccc3nc21` was tested, and the Potency was inconclusive [activator, partial curve].
`CCOC(=O)NC1(NC2CCCCC2)Oc2ccccc2O1` was tested, and the Potency was “inactive”.
In the case of `CCSc1nnc(-c2ccccc2SC)o1`, the Potency was inconclusive [inhibitor, single point].
In the case of `COCCNS(=O)(=O)c1ccc2c(c1)n(C)c(=O)n2C`, the Potency was inconclusive [inhibitor, full curve].
With `CCOCCCn1c(=NC(=O)c2cccs2)c(C#N)cc2c(=O)n3ccccc3nc21` the Potency was inconclusive [activator, partial curve].
For `C=CCNc1nc(N)c(C(=C(C#N)C#N)c2ccc(Br)cc2)s1`, the Potency was inconclusive [activator, single point].
With `Cc1ccc2nc(-c3ccc(NS(=O)(=O)c4ccc(F)cc4)cc3)sc2c1` the Potency was inconclusive [activator, single point].
`CC(=O)Nc1ccc(S(=O)(=O)/N=C2/NC(=O)/C(=C\c3ccco3)S2)cc1` was tested, and the Potency was inconclusive [inhibitor, partial curve].
`CCC(=O)Oc1ccc2c(C)cc(=O)oc2c1C` was tested, and the Potency was inconclusive [activator, partial curve].
For `CCCCC/C=C\C\C=C/C=C/C=C/[C@@H](O)[C@@H](O)CCCC(=O)O`, the Potency was “inactive”.
For `COc1ccc(Cn2nnnc2C(C(C)C)N2CCN(c3ccccc3OC)CC2)cc1` (stereo not given), the Potency was “inactive”.
With `O=C(/C=C/Nc1ccc(OC(F)(F)F)cc1)C(F)(F)F` the Potency was inconclusive [inhibitor, single point].
In the case of `COC(=O)c1ccccc1NC(=O)c1ccccc1OC`, the Potency was inconclusive [inhibitor, partial curve].
`C/C(=N\Nc1ccc(Cl)cc1)c1ccccn1` was tested, and the Potency was “inactive”.
With `CCOC(=O)c1cc2c(=O)n3ccccc3nc2n(Cc2ccco2)c1=NC(=O)c1cccnc1` the Potency was inconclusive [activator, partial curve].
With `COc1cc2nc(N(C)CCCNC(=O)[C@@H]3CCCO3)nc(N)c2cc1OC` the Potency was inconclusive [activator, single point].
With `Fc1cccc(NC(=S)NNc2c3ccccc3nc3ccccc23)c1` the Potency was inconclusive [activator, partial curve].
In the case of `CCc1cc(=O)oc2c(CN3CCCC3)c(O)c(Cl)cc12`, the Potency was inconclusive [activator, partial curve].
In the case of `C/C(=N\NC(=O)CC#N)c1cc2ccc(O)cc2oc1=O`, the Potency was inconclusive [activator, partial curve].
For `COc1ccc(CNc2oc(-c3cccc4ccccc34)nc2P(=O)(OC)OC)cc1`, the Potency was inconclusive [activator, single point].
In the case of `Cc1c(O)ccc2c3c(c(=O)oc12)CCC(C)C3` (stereo not given), the Potency was inconclusive [activator, single point].
`CCCCCCCCCCOc1cc(OCCCCCCCCCC)cc(N(CC(=O)O)CC(=O)O)c1` was tested, and the Potency was “inactive”.
`Nc1cccc2nc3ccccc3cc12` was tested, and the Potency was inconclusive [activator, single point].
`Cc1[nH][nH]c(=O)c1C(c1cc([N+](=O)[O-])ccc1O)c1c(C)[nH][nH]c1=O` was tested, and the Potency was inconclusive [inhibitor, single point].
For `Cc1cccc(C=Nc2ccc3c4c(cccc24)CC3)c1O`, the Potency was “inactive”.
For `NS(=O)(=O)c1ccc(N2N=C(c3ccccc3)CC2c2ccccc2)cc1` (stereo not given), the Potency was inconclusive [activator, partial curve].
In the case of `Cc1ccc(S(=O)(=O)N2CCCCC2)cc1NC(=O)CSc1nncn1-c1ccccc1`, the Potency was inconclusive [inhibitor, partial curve].
In the case of `Cn1cnc2c(NCc3ccccc3)nc(NCCO)nc21`, the Potency was inconclusive [inhibitor, full curve].
In the case of `O=C1C(=Cc2cccs2)C(=O)c2ccccc21`, the Potency was “inactive”.
With `COc1cccc(/C=N/c2oc(-c3ccccc3)cc2C#N)c1O` the Potency was “inactive”.
With `CCc1c2c(nc3c(C(C)C)cccc13)-c1cccc(=O)n1C2` the Potency was inconclusive [activator, single point].
With `CCOC(=O)C1CCN(C(=O)c2cc3c(=O)n4ccccc4nc3n2C)CC1` the Potency was inconclusive [activator, single point].
For `Cc1ccc(S(=O)(=O)NC(CC(C)C)C(=O)Oc2ccc3c4c(c(=O)oc3c2)CCC4)cc1` (stereo not given), the Potency was inconclusive [activator, partial curve].
For `Cn1c(-c2cc3ccc(OC(=O)C(C)(C)C)cc3oc2=O)nc2ccccc21`, the Potency was inconclusive [activator, partial curve].
With `COc1ccccc1CN1CCCC2(CCN(C(=O)c3ccncc3)CC2)C1` the Potency was “inactive”.
`O=c1nc2s/c(=C\c3ccc(-c4ccccc4[N+](=O)[O-])o3)c(=O)n2nc1-c1ccccc1` was tested, and the Potency was “inactive”.
In the case of `O=c1c(-c2nnc(SCc3ccc(Cl)cc3)o2)cccn1Cc1ccccc1`, the Potency was inconclusive [activator, single point].
For `CN(C)c1ccc(P(=O)(OCc2ccccc2)C(O)c2cccnc2)cc1` (stereo not given), the Potency was inconclusive [inhibitor, single point].
With `COc1cccc(/C=N/NC(=O)c2nc(-c3ccccc3)cc(-c3ccccc3)n2)c1` the Potency was inconclusive [inhibitor, single point].
In the case of `CC1C2(C)OC(=N)C(C#N)(C(C)O2)C1(C#N)C#N` (stereo not given), the Potency was inconclusive [activator, partial curve].
In the case of `Cc1ccc(N(C)S(=O)(=O)c2cccc(C(=O)Oc3ccc4c(C)cc(=O)oc4c3)c2)cc1`, the Potency was inconclusive [activator, partial curve].
With `CCOP(=O)(OCC)c1nc(-c2cccc3ccccc23)oc1N1CCCCC1` the Potency was inconclusive [activator, partial curve].
For `O=C(C1CCN(S(=O)(=O)c2cccc3nsnc23)CC1)N1CCn2c1nc1ccccc12`, the Potency was inconclusive [inhibitor, single point].
With `COc1ccc(C(=O)NC2c3ccccc3-c3ccccc32)cc1` the Potency was inconclusive [inhibitor, full curve, poor fit].
In the case of `CCOc1ccc(OCC)c(S(=O)(=O)NNC(=O)c2c(C)nc3ccccn23)c1`, the Potency was “inactive”.
For `O=C(Nc1nc2ccccc2[nH]1)C1CCCO1` (stereo not given), the Potency was “inactive”.
For `CN(C)C(=S)SC(=S)N(C)C`, the Potency was “inactive”.
For `S=C(NCc1ccccc1)Nc1cccc(Cl)c1`, the Potency was “inactive”.
`CCOc1ccccc1CNc1ccc(O)cc1` was tested, and the Potency was “inactive”.
`CC[C@@]1(O)C(=O)OCc2c1cc1n(c2=O)Cc2cc3ccccc3nc2-1` was tested, and the Potency was inconclusive [activator, partial curve].
`COc1cccc(-c2cc(C(F)(F)F)c(C#N)c(=O)[nH]2)c1` was tested, and the Potency was inconclusive [activator, single point].
In the case of `COc1cc(/C=N\NC(=O)c2c(C)nc3cc(C)ccn23)ccc1O`, the Potency was inconclusive [inhibitor, single point].
`COc1ccc(-c2cc(C(F)(F)F)n3nc(C(=O)NCCCN4CCOCC4)cc3n2)cc1` was tested, and the Potency was inconclusive [activator, single point].
`COc1ccc(-c2cn3c(n2)CCC3)cc1` was tested, and the Potency was inconclusive [inhibitor, full curve, poor fit].
With `O=C(O)c1cc(-c2ccco2)nc2ccccc12` the Potency was inconclusive [activator, single point].
With `COC(=O)C1=CN(Cc2cccs2)C=C(C(=O)OC)C1c1cccc(Cl)c1` the Potency was inconclusive [activator, partial curve].
In the case of `CC1CCCN(Cc2c(O)ccc3c4c(c(=O)oc23)CCCC4)C1` (stereo not given), the Potency was inconclusive [activator, partial curve].
With `Cc1cccc(S(=O)(=O)Nc2ccc(-c3nc4ccc(C)cc4s3)cc2)c1` the Potency was inconclusive [activator, partial curve].
In the case of `O=C(CSc1nc2cc(Cl)c(Cl)cc2[nH]1)c1ccc2c(c1)OCO2`, the Potency was “inactive”.
